We go through 31 sequences from paper PMC12820563.

The list shows a part of the results. The list includes weakly bound sequences.

The target in the assay is T1, MBP-FoxP3dN (UniProt Q99JB6).
T1 sequence: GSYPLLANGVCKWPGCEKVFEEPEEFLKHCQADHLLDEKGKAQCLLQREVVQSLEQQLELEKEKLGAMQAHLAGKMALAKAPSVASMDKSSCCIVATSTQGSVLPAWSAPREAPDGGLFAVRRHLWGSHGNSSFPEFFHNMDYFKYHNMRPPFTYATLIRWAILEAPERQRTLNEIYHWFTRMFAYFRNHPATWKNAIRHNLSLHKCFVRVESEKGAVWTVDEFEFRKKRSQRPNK
In words: PD-seq (MBP pull-down with sequencing). Conditions: 20 mM Tris-HCl pH 7.5, 100 mM NaCl, 1.5 mM MgCl2, 0.4 uM protein, 0.1 uM dsDNA library, 30 min, room temperature, amylose pull-down; high values mean tight binding; double strand, one strand shown.
Turning to “GATGATTGTTCTCCCAGCTGATGAATTCAGAATGTCGAGTAAACAAATTTTCCTAATCTTTCTGTTCAAGCGCCATCTAC”, the binding signal (RPM ratio (pull-down/input)) was found to be 0.45.
To “GATGATTGTTCTCCCAGCTGATGAATTGCGGCACTCGAGTAAACAAATTTTCCTAATCTTTCTGTTCAAGCGCCATCTAC” belongs 0.922; to “GATGATTGTTCTCCCAGCTGATGAATTCCTTATATCGAGTAAACAAATTTTCCTAATCTTTCTGTTCAAGCGCCATCTAC”, 0.314; to “GATGATTGTTCTCCCAGCTGATGAATTCAGCCGTTCGAGTAAACAAATTTTCCTAATCTTTCTGTTCAAGCGCCATCTAC”, 0.668.
For “GATGATTGTTCTCCCAGCTGATGAATTTGATCATTCGAGTAAACAAATTTTCCTAATCTTTCTGTTCAAGCGCCATCTAC” the value was 0.627; for “GATGATTGTTCTCCCAGCTGATGAATTTCCACAGTCGAGTAAACAAATTTTCCTAATCTTTCTGTTCAAGCGCCATCTAC”, 0.208; for “GATGATTGTTCTCCCAGCTGATGAATTCCAAGGTTCGAGTAAACAAATTTTCCTAATCTTTCTGTTCAAGCGCCATCTAC”, 0.23.
To “GATGATTGTTCTCCCAGCTGATGAATTGGCGCTATCGAGTAAACAAATTTTCCTAATCTTTCTGTTCAAGCGCCATCTAC” belongs 0.848; to “GATGATTGTTCTCCCAGCTGATGAATTCCTGTCATCGAGTAAACAAATTTTCCTAATCTTTCTGTTCAAGCGCCATCTAC”, 0.482.
As for “GATGATTGTTCTCCCAGCTGATGAATTTTTGCCCTCGAGTAAACAAATTTTCCTAATCTTTCTGTTCAAGCGCCATCTAC”, the binding signal (RPM ratio (pull-down/input)) stood at 0.483.
To “GATGATTGTTCTCCCAGCTGATGAATTGTTGCGGTCGAGTAAACAAATTTTCCTAATCTTTCTGTTCAAGCGCCATCTAC” belongs 2.29.
To “GATGATTGTTCTCCCAGCTGATGAATTCATGTAATCGAGTAAACAAATTTTCCTAATCTTTCTGTTCAAGCGCCATCTAC” belongs 0.759; to “GATGATTGTTCTCCCAGCTGATGAATTTGGCTCCTCGAGTAAACAAATTTTCCTAATCTTTCTGTTCAAGCGCCATCTAC”, 0.863.
For “GATGATTGTTCTCCCAGCTGATGAATTAGCTACTTCGAGTAAACAAATTTTCCTAATCTTTCTGTTCAAGCGCCATCTAC” the value was 0.488; for “GATGATTGTTCTCCCAGCTGATGAATTATCCTATTCGAGTAAACAAATTTTCCTAATCTTTCTGTTCAAGCGCCATCTAC”, 0.332.
As to “GATGATTGTTCTCCCAGCTGATGAATTGACACGGTCGAGTAAACAAATTTTCCTAATCTTTCTGTTCAAGCGCCATCTAC”, the binding signal (RPM ratio (pull-down/input)) was 0.311.
For “GATGATTGTTCTCCCAGCTGATGAATTGCGCAACTCGAGTAAACAAATTTTCCTAATCTTTCTGTTCAAGCGCCATCTAC” the value was 6.43; for “GATGATTGTTCTCCCAGCTGATGAATTGAATGCGTCGAGTAAACAAATTTTCCTAATCTTTCTGTTCAAGCGCCATCTAC”, 1.34; for “GATGATTGTTCTCCCAGCTGATGAATTATGCGCCTCGAGTAAACAAATTTTCCTAATCTTTCTGTTCAAGCGCCATCTAC”, 2.82.
For “GATGATTGTTCTCCCAGCTGATGAATTAGCCAAGTCGAGTAAACAAATTTTCCTAATCTTTCTGTTCAAGCGCCATCTAC” the value was 0.184; for “GATGATTGTTCTCCCAGCTGATGAATTCACCTCCTCGAGTAAACAAATTTTCCTAATCTTTCTGTTCAAGCGCCATCTAC”, 0.309.
For “GATGATTGTTCTCCCAGCTGATGAATTCTTGTGATCGAGTAAACAAATTTTCCTAATCTTTCTGTTCAAGCGCCATCTAC” the value was 0.524; for “GATGATTGTTCTCCCAGCTGATGAATTGAAGTGATCGAGTAAACAAATTTTCCTAATCTTTCTGTTCAAGCGCCATCTAC”, 0.434; for “GATGATTGTTCTCCCAGCTGATGAATTGGCAATATCGAGTAAACAAATTTTCCTAATCTTTCTGTTCAAGCGCCATCTAC”, 1.15.
As to “GATGATTGTTCTCCCAGCTGATGAATTTTCCGTGTCGAGTAAACAAATTTTCCTAATCTTTCTGTTCAAGCGCCATCTAC”, the binding signal (RPM ratio (pull-down/input)) was determined as 0.303.
In the case of “GATGATTGTTCTCCCAGCTGATGAATTTGCAGCGTCGAGTAAACAAATTTTCCTAATCTTTCTGTTCAAGCGCCATCTAC”, the binding signal (RPM ratio (pull-down/input)) is 1.04.
For “GATGATTGTTCTCCCAGCTGATGAATTGCGTGCTTCGAGTAAACAAATTTTCCTAATCTTTCTGTTCAAGCGCCATCTAC” the value was 1.56; for “GATGATTGTTCTCCCAGCTGATGAATTATCGCTATCGAGTAAACAAATTTTCCTAATCTTTCTGTTCAAGCGCCATCTAC”, 0.715.
As to “GATGATTGTTCTCCCAGCTGATGAATTCCGCGGCTCGAGTAAACAAATTTTCCTAATCTTTCTGTTCAAGCGCCATCTAC”, the binding signal (RPM ratio (pull-down/input)) is 0.689.
For “GATGATTGTTCTCCCAGCTGATGAATTTGATCGATCGAGTAAACAAATTTTCCTAATCTTTCTGTTCAAGCGCCATCTAC” the value was 0.247; for “GATGATTGTTCTCCCAGCTGATGAATTACTTTAATCGAGTAAACAAATTTTCCTAATCTTTCTGTTCAAGCGCCATCTAC”, 0.273.
